Measured values taken from publication PMC12603276.
No constants are given. Whether binding was seen depends on the method and setting. In cells and extracts the contact can be indirect. Some entries that bind do so weakly or less than the wild type. For some assays here: Tags and fused reporters may be left off the sequences shown.

Columns and labels:
[1] = biological target: T1, phosphoglycerate kinase 1 (PGK1), endogenous (human (endogenous in PANC-1 and AsPC-1)) (UniProt P00558); assay: condition: only immunoprecipitates treated with CIP (10 units); co-IP; endogenous proteins; PANC-1 cells collected 6 h after IR (4 Gy); immunoprecipitates treated with CIP (10 units), then immunoblot
T1 sequence: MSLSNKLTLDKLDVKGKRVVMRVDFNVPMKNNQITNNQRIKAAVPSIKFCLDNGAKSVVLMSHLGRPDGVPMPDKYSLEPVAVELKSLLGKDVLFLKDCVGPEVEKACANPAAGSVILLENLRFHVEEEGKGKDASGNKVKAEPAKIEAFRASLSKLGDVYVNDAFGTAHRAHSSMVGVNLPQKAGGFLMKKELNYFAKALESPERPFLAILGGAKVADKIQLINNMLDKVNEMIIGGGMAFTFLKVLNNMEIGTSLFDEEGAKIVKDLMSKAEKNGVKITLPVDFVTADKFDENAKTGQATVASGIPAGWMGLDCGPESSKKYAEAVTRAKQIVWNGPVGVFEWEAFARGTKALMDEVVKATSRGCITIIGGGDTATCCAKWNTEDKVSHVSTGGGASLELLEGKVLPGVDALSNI

[2] = biological target: T2, WT Flag-rPGK1 (human) (UniProt P00558); assay: co-IP; PANC-1 cells expressing WT Flag-rPGK1 or Flag-rPGK1 S256A, with or without IR (4 Gy, 6 h); immunoprecipitation and immunoblot for endogenous MORC2
T2 sequence: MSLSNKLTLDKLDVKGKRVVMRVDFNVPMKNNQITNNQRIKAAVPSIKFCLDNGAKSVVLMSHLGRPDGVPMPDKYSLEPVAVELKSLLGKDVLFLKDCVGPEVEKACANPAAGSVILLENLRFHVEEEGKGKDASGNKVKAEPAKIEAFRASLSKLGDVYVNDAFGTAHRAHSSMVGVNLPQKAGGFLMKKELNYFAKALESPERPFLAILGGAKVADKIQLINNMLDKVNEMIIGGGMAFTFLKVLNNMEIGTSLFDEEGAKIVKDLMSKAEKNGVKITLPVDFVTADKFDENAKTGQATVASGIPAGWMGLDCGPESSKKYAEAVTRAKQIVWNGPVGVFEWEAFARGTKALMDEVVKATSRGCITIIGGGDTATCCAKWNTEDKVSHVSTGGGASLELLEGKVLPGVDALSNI

[3] = biological target: T3, Flag-rPGK1 S256A (human) (UniProt P00558); assay: as above
T3 sequence: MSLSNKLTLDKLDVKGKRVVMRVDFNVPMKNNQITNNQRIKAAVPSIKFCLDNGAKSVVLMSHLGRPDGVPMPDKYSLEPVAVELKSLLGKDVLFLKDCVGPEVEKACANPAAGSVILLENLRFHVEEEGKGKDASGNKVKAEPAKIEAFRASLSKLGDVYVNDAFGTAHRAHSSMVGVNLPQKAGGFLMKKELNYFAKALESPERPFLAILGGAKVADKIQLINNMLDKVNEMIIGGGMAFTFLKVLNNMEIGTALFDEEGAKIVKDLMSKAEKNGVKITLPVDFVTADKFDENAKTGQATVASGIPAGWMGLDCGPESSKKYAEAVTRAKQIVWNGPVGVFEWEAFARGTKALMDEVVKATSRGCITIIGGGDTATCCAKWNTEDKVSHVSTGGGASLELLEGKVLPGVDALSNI

[4] = biological target: T1, phosphoglycerate kinase 1 (PGK1), endogenous (human (endogenous in PANC-1 and AsPC-1)); assay: condition: only cells pretreated with the CK2 inhibitor TBB (10 μM) before IR; co-IP; endogenous proteins; PANC-1 cells pretreated with the CK2 inhibitor TBB (10 μM) for 1 h before IR (4 Gy, 6 h); immunoprecipitation and immunoblot
[5] = biological target: T1, phosphoglycerate kinase 1 (PGK1), endogenous (human (endogenous in PANC-1 and AsPC-1)); assay: co-IP; endogenous proteins; anti-PGK1 immunoprecipitation from PANC-1 and AsPC-1 lysates, with or without IR (4 Gy, 6 h), then immunoblot; also cells pretreated with LY294002 (30 μM), U0126 (20 µM) or SP600125 (25 μM) for 1 h before IR

- binding [1]: no binding
- binding [2]: binds
- binding [3]: no binding
- binding [4]: no binding
- binding [5]: binds
B1: microrchidia CW-type zinc finger 2 (MORC2), endogenous (enzyme, UniProt Q9Y6X9 1-1032)
chain: MAFTNYSSLNRAQLTFEYLHTNSTTHEFLFGALAELVDNARDADATRIDIYAERREDLRGGFMLCFLDDGAGMDPSDAASVIQFGKSAKRTPESTQIGQYGNGLKSGSMRIGKDFILFTKKEDTMTCLFLSRTFHEEEGIDEVIVPLPTWNARTREPVTDNVEKFAIETELIYKYSPFRTEEEVMTQFMKIPGDSGTLVIIFNLKLMDNGEPELDIISNPRDIQMAETSPEGTKPERRSFRAYAAVLYIDPRMRIFIHGHKVQTKRLSCCLYKPRMYKYTSSRFKTRAEQEVKKAEHVARIAEEKAREAESKARTLEVRLGGDLTRDSRVMLRQVQNRAITLRREADVKKRIKEAKQRALKEPKELNFVFGVNIEHRDLDGMFIYNCSRLIKMYEKVGPQLEGGMACGGVVGVVDVPYLVLEPTHNKQDFADAKEYRHLLRAMGEHLAQYWKDIAIAQRGIIKFWDEFGYLSANWNQPPSSELRYKRRRAMEIPTTIQCDLCLKWRTLPFQLSSVEKDYPDTWVCSMNPDPEQDRCEASEQKQKVPLGTFRKDMKTQEEKQKQLTEKIRQQQEKLEALQKTTPIRSQADLKKLPLEVTTRPSTEEPVRRPQRPRSPPLPAVIRNAPSRPPSLPTPRPASQPRKAPVISSTPKLPALAAREEASTSRLLQPPEAPRKPANTLVKTASRPAPLVQQLSPSLLPNSKSPREVPSPKVIKTPVVKKTESPIKLSPATPSRKRSVAVSDEEEVEEEAERRKERCKRGRFVVKEEKKDSNELSDSAGEEDSADLKRAQKDKGLHVEVRVNREWYTGRVTAVEVGKHVVRWKVKFDYVPTDTTPRDRWVEKGSEDVRLMKPPSPEHQSLDTQQEGGEEEVGPVAQQAIAVAEPSTSECLRIEPDTTALSTNHETIDLLVQILRNCLRYFLPPSFPISKKQLSAMNSDELISFPLKEYFKQYEVGLQNLCNSYQSRADSRAKASEESLRTSERKLRETEEKLQKLRTNIVALLQKVQEDIDINTDDELDAYIEDLITKGD
